{"source": "the supplement of paper PMC9446081", "note": "Hit rate of the full screen: of about 39,000 compounds, about 220 (0.56%) showed activity. The list shows a part of the results.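 Also: static incubation at 37 °C against the wild-type strain, values averaged over two biological replicates.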"}
{"system": "Escherichia coli K-12 BW25113", "experiment": "relative growth (OD600 normalised to plate interquartile mean) (fraction); higher = less growth inhibition, active = 0.2 or less", "conditions": "50 µM; LB; incubation time: overnight (16-24 h)"}
{"smiles": "COCC(=O)N(C)C[C@H]1Oc2cc(-c3ccc(C#N)cc3)ccc2S(=O)(=O)N([C@@H](C)CO)C[C@@H]1C", "relative growth": "inactive: 1.01"}
{"smiles": "CCOC(=O)c1nonc1N", "relative growth": "inactive: 1.01"}
{"smiles": "O=C(Nc1cccc([N+](=O)[O-])c1)C(=O)NC1CC1", "relative growth": "inactive: 1.04"}
{"smiles": "COc1ccc(NC(=O)Nc2ccc3c(c2)C(=O)N([C@@H](C)CO)C[C@@H](C)[C@@H](CN(C)C(=O)CCC(F)(F)F)OCCCC[C@@H](C)O3)cc1", "relative growth": "inactive: 0.961"}
{"smiles": "O=C(C[C@H]1CC[C@@H](NC(=O)CN2CCOCC2)[C@H](CO)O1)NC1CCC1", "relative growth": "inactive: 0.967"}
{"smiles": "C=CCC[C@H](Cc1ccc(F)cc1)C(=O)OC[C@H]1CCCN1C(=O)[C@H](CC=C)CC(=O)N(CCO)Cc1ccccc1", "relative growth": "inactive: 1.07"}
{"smiles": "COc1ccc(NC(=O)N(C)C[C@H]2OCCCC[C@@H](C)Oc3ccc(NS(=O)(=O)c4ccc(OC)cc4)cc3C(=O)N([C@@H](C)CO)C[C@@H]2C)cc1", "relative growth": "inactive: 1.02"}
{"smiles": "C[C@@H]1CN([C@@H](C)CO)C(=O)Cc2cc(NC(=O)CCCCCC(=O)Nc3ccccc3N)ccc2O[C@H]1CN(C)Cc1ccccc1", "relative growth": "inactive: 1.03"}
{"smiles": "O=C(C[C@H]1CC[C@@H]2[C@H](COC[C@H](O)CN2S(=O)(=O)c2ccc(F)cc2)O1)NCCN1CCCCC1", "relative growth": "inactive: 1"}
{"smiles": "O=C(C[C@@H]1CC[C@@H]2[C@H](COC[C@H](O)CN2C(=O)c2ccccc2)O1)N1CCOCC1", "relative growth": "inactive: 0.973"}
{"smiles": "Cc1ccc(S(=O)(=O)N(C)C[C@H]2OCCCC[C@@H](C)Oc3ccc(NC(=O)c4ccccc4)cc3C(=O)N([C@@H](C)CO)C[C@H]2C)cc1", "relative growth": "inactive: 1.02"}
{"smiles": "C[C@H](CO)N1C[C@H](C)[C@H](CN(C)Cc2ccc(-c3ccccc3)cc2)Oc2ccc(NC(=O)CCCCCC(=O)Nc3ccccc3N)cc2C1=O", "relative growth": "inactive: 0.97"}
{"smiles": "O=c1nc(NCc2cccnc2)cn[nH]1", "relative growth": "inactive: 1.04"}
{"smiles": "C[C@@H]1CCCCO[C@H](CN(C)C(=O)Cc2ccccc2)[C@H](C)CN([C@@H](C)CO)C(=O)c2cc(NC(=O)c3ccccc3)ccc2O1", "relative growth": "inactive: 1"}
{"smiles": "C[C@H](CO)N1C[C@H](C)[C@@H](CN(C)C(=O)Nc2cccc3ccccc23)Oc2ccc(NS(=O)(=O)c3cccs3)cc2C1=O", "relative growth": "inactive: 0.993"}
{"smiles": "O=C(O)Cc1nnc(-c2ccncc2)[nH]1", "relative growth": "inactive: 1"}
{"smiles": "C(=CN1CCN(C(c2ccccc2)c2ccccc2)CC1)Cc1ccccc1", "relative growth": "inactive: 1.03"}
{"smiles": "O=C(CCCCCCC(=O)Nc1ccccc1O)N/N=C/c1cc(Br)c(O)c(Br)c1", "relative growth": "inactive: 0.932"}
{"smiles": "CO/N=[N+](\\[O-])N1CCCC1", "relative growth": "inactive: 0.956"}
